# Measured values as given in ChEMBL document CHEMBL4888484, “Replenishing the malaria drug discovery pipeline: Screening and hit evaluation of the MMV Hit Generation Library 1 (HGL1) against asexual blood stage Plasmodium falciparum ,using a nano luciferase reporter read-out” (2022).
# In all, about 150,000 compounds went through this assay and about 540 (0.36%) showed an effect of 50% or more. Some of the results follow.
# Test system: Plasmodium falciparum
# Assay: Primary screen in NF54 nanoGlo assay, in single point, at 2uM, 72h; a lower Z score goes with more inhibition
# Assay type: functional, Erythrocyte
# Details: timepoint 72 hour
Structure (SMILES),% Inhibition,Z score
Nc1nc(CCNC(=O)c2ccccc2)n[nH]1,-17%,1.92
CCC1=NO[C@@H](CNC(=O)Cc2csc(C)n2)C1,2%,-0.33
COc1cnc(CN2CCC3(CC2)[C@H](O)C[C@@H]3OC)cc1O,-2%,0.4
O=C(NCc1ccco1)c1ccc(Cn2c(=O)c3ccccc3n(Cc3ccc(F)cc3Cl)c2=O)cc1,-18%,2.02
C=CCn1c(-c2cccc(Cl)c2)cn2cc(C(=O)NCC)nc2c1=O,-9%,0.82
CC(C)CN1C(=O)CC[C@@H]2CN(C(=O)c3ccc4[nH]cnc4c3)CC[C@@H]21,2%,-0.29
Cc1c(C#N)c2ccccc2n1CC(=O)N1CCOC[C@@H]1CC(=O)NCCF,1%,-0.18
CC(C)=CCN1C[C@@H]2CC[C@H]1CN(C(=O)c1[nH]c3c(F)cccc3c1C)C2,-17%,1.72
CN1[C@@H]2CC[C@H]1CN(S(=O)(=O)c1ccccc1)CC2,1%,-0.25
CCn1nccc1C(=O)Nc1ccc2c(c1)OCCO2,-12%,2.03
O=C(CCc1ccsc1)NCc1ccc(N2CCCCC2)nc1,-6%,1.11
O=C(c1ccc2ncccc2c1)N1CC(c2noc([C@@H]3CCCN3CC3CC3)n2)C1,11%,-1.29
COCCN1CCCN(C(=O)[C@@]2(COC)CCN(C(=O)OC(C)(C)C)C2)CC1,2%,-0.23
CNC(=O)[C@@H]1C[C@@H](NCc2ccc(C(F)(F)F)cc2)CN1CC(c1ccccc1)c1ccccc1,2%,-0.22
Cc1cccc(CC(=O)Nc2cnc(-c3cccnc3)nc2)c1,-29%,2.55
CCc1nn(Cc2cccnc2N)c(=O)c(C#N)c1CC,-8%,1.57
Cc1ncn(CCNC(=O)[C@@H]2CCc3ccccc32)c1C,-7%,1.03
CC(C)N(CCc1nccs1)C(=O)c1cc[nH]c1C1CCC1,-4%,0.78
C=CCOc1ccc(CN2CC[C@]3(O)CCN(C(=O)N4CCCC4)C[C@@H]3C2)cc1,-1%,0.12
Cc1ccccc1-c1nc2nc(C)c(CC(=O)N3CCCCCC3)c(C)n2n1,28%,-3.77
Cc1ccc(-c2nn(-c3ccccc3)cc2C(=O)N2CCC(C(=O)O)CC2)o1,0%,0.02
Cc1ccc(C[C@H](C)Nc2ccnc3c2cnn3C)s1,-16%,1.68
CC(C)NC(=O)[C@@H]1CC2(CN(C(=O)NCc3ccco3)C2)CN1C,-5%,0.56
O=C(CC1CCCCC1)NC1CCN(Cc2ccncc2Cl)CC1,-6%,1.01
CCn1ncc(CN2CCCC[C@H]2C(=O)NCC(F)F)n1,28%,-3.14
COc1ccc(S(=O)(=O)N(C)c2ccnc(C(=O)NCc3ccc(F)cc3)c2)cc1,-7%,1.15
COCCN(Cc1cc2ccc(OC)cc2nc1N(C)C)C(=O)CCn1nc(C)cc1C,4%,-0.57

Structure (SMILES),% Inhibition,Z score
Cc1cnn(CCC(=O)N2CC(n3ccnc3C)C2)c1,-3%,0.43
CC1(C)CC(=O)c2cn(-c3ccc(Cl)cc3)c(=O)c(C(=O)N3CCCCC3)c2C1,-12%,1.34
Brc1cc2c(cc1C(N1CCOCC1)N1CCOCC1)OCO2,-6%,1.06
COC(=O)[C@H](Cc1ccccc1)NC(=O)C1CCCc2ccccc21 (stereo partly specified),-6%,1.01
Cc1noc(C)c1C(=O)N1CCC2(CCN(CCC(C)(C)C)CC2)CC1,-3%,0.54
O=C(Nc1ccn(CCF)n1)c1ccsc1C(F)(F)F,-8%,1.17
CC(C(=O)NCC1CCCO1)N1CCCC(Cn2cncn2)C1 (stereo unspecified),-7%,0.58
O=C(NC[C@H]1CCCO1)c1ccc(-c2noc(-c3ccccc3)n2)s1,-5%,0.66
COC[C@H]1[C@H](NC(=O)CCn2cc(Cl)cn2)[C@H]2CCO[C@H]21,-11%,1.23
Cc1nc(-c2cccc(F)c2)nc(N2CCN(C(=O)c3ccc(-c4ccccc4)cc3)CC2)c1Cc1ccccc1,-3%,0.49
CC1CC(C)CN(C(=O)CN2CCC3(CC2)OCCO3)C1 (stereo unspecified),-5%,0.7
CCOC(=O)c1nnn(-c2nc(OCC)nc(N3CCOCC3)n2)c1-c1ccccc1,-15%,2.04
CC(=O)N1c2cc(S(=O)(=O)Nc3ccccc3F)c(Br)cc2C[C@@H]1C,-2%,0.21
CCC(NC(=O)N1CCC(C)CC1)(C(F)(F)F)C(F)(F)F,1%,-0.11
COc1nc(OC)nc(-c2ccc(O)cc2)n1,-11%,2.02
Cc1nsc(N2CC3C(C2)C3(C)C)n1 (stereo unspecified),-10%,1.38
COCc1nsc(N2CCC(OCC3CCCC3)CC2)n1,-11%,1.28
CCOc1ccc(CONC(=O)COc2ccc(Cl)cc2Cl)cc1Cl,-6%,0.8
Cc1oncc1C(=O)N1CC[C@H](Oc2cncc(N(C)C)n2)C1,-11%,1.27
CC1CCN(CCn2ccnc2C(C)C)CC1,-9%,1.33
O=C(Cn1c(NCCO)nc2ccccc21)c1ccc2c(c1)OCO2,-12%,1.08
Cc1nc(-c2cccc(NC(=O)CNC(=O)c3sc4ccccc4c3Cl)c2)cs1,-2%,0.34
CC1CCc2sc(C(=O)N3CCC(C(=O)O)C3)cc2C1 (stereo unspecified),5%,-0.77
Cc1ccccc1[C@@H](C)C(=O)NCC(=O)N1CCCO1,-3%,0.47
C[C@@H]1N(C(=O)C(C)(C)NC(=O)c2ccccc2)CCC12CCOCC2,-6%,0.52
Cc1cc2nn(CC(=O)Nc3ccc(C)c(F)c3)c(=O)n2c(Nc2ccc(C)c(F)c2)n1,-22%,2.3
